# From PubChem BioAssay AID995 (National Center for Advancing Translational Sciences (NCATS), 2007)
# Screen size: about 72,000 compounds; about 710 (0.99%) were called active. Inconclusive results, whose numbers are uncertain, are shown with a selection of clear calls. Calls come from the whole dose curve; as a rule, active = well fitted inhibition curve with a large enough effect; inconclusive = small, poorly fitted or top-dose-only effect; inactive = no such curve, though single readings can be large or run the other way. No potency is given beside an inconclusive call; the fits are too rough.
# Test: qHTS Assay for Inhibitors of the ERK Signaling Pathway using a Homogeneous Screening Assay; note: nearly all actives have a fitted effect of over 55% in size
# Conditions: HEK293-V1b, vasopressin-stimulated pERK AlphaScreen; activity, negative = inhibition: at 57.5 µM (top of the series) unless noted
# Outline: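 HEK293 cells stably expressing V1b receptor, preincubated 30 min at 37 °C with compound, then stimulated 5 min with 25 nM vasopressin. Phospho-ERK by AlphaScreen SureFire after 5 h RT; normalized to DMSO and vasopressin; AC50 by Hill fit.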
# % is set by controls: 0 for no effect and ±100 for the full control effect; potency is the fitted concentration of half-maximal effect; tags give direction and shape of the fitted curve.
SMILES,Potency,"activity, negative = inhibition"
COc1ccc(C2C(C#N)=C(N)Oc3n[nH]c(-c4ccccn4)c32)c(OC)c1OC (centres undefined),"inconclusive [inhibitor, partial curve]",
Cc1c(C(=O)Nc2ccc3oc(-c4cccnc4)nc3c2)oc2ccccc12,,inactive: 5.09%
N#Cc1cccc(NC(=O)N2CCC3(CC2)CCN(C(=O)c2csnn2)CC3)c1,"inconclusive [inhibitor, partial curve]",
COc1ccc(CNc2nc3c(c(=O)n(Cc4ccc(F)cc4)c(=O)n3C)n2C)cc1,"inconclusive [inhibitor, single point]",
Cn1nc(-c2ccc(C(=O)Nc3cccnc3)cc2)c2ccccc2c1=O,"inconclusive [inhibitor, partial curve, poor fit]",
Cc1cc(N2CCN(S(=O)(=O)c3ccccc3)CC2)c2ccccc2n1,active: 31.6 µM,
O=c1c2ccccc2nnn1CSc1nnc(-c2ccco2)o1,"inconclusive [inhibitor, single point]",
Fc1ccc([C@H]2CCNCC2COc2ccc3c(c2)OCO3)cc1 (some centres undefined),,inactive: 4.07%
C[C@@]12C(=O)OC(=O)[C@@]1(C)[C@H]1CC[C@@H]2O1,active: 7.94 µM,
c1coc(CNc2nc3nonc3nc2NCc2ccco2)c1,"inconclusive [inhibitor, single point]",
Cc1ccc(O)c(N=CC2=C(O)c3ccccc3C2=O)c1,"inconclusive [inhibitor, partial curve]",
COc1ccc(-c2cc(C(=O)Nc3cc(C)n(Cc4ccc(Cl)cc4)n3)no2)cc1OC,"inconclusive [inhibitor, partial curve]",
CCn1cc(Br)c(C(=O)NC(C)c2ccccc2)n1 (centres undefined),"inconclusive [inhibitor, partial curve]",
COc1cc2c(cc1OC)C(c1ccc(N(C)C)cc1)CC(=O)N2 (centres undefined),"inconclusive [inhibitor, partial curve]",
COc1ccc(-c2noc(CSc3nnc(-c4ccncc4)n3-c3ccc(F)cc3)n2)cc1OC,active: 25.1 µM,
COc1cccc(Nc2ncc3nc(CCc4ccccc4)c(=O)n(C)c3n2)c1,,inactive: -9.89%
Cc1ccc(-c2nc3cc(NC(=O)C(C)C)ccc3o2)cc1,,inactive: 28.3%
COC(=O)[C@@H]1O[C@@H](SCCN)[C@@H](O)[C@H](O)[C@H]1O,,inactive: 23.2% [at 11.5 µM]
Cc1c2c(nc3ccccc13)-c1cccc(=O)n1C2,"inconclusive [inhibitor, partial curve]",
CN(C)c1ncc2ncc(=O)n(C[C@H]3CCCO3)c2n1,"inconclusive [inhibitor, full curve, poor fit]",
COc1nc(-c2ccc(C)cc2)ccc1-c1noc(-c2cccnc2)n1,,inactive: 12.7%
OC(CN(c1ccccc1)c1ccccc1)Cn1cnc2ccccc21 (centres undefined),"inconclusive [inhibitor, single point]",
O=C(COC(=O)Cc1cn2ccsc2n1)Nc1nc2ccccc2s1,"inconclusive [inhibitor, single point]",
O=C(O)[C@@H]1[C@@H]2C[C@H]([C@@H](Br)[C@H]2N2C(=O)CCC2=O)[C@@H]1C(=O)O,"inconclusive [inhibitor, single point]",
CN[C@]1(C)[C@H]2CC[C@@H](C2)C1(C)C,,inactive: 0.538% [at 25.7 µM]

SMILES,Potency,"activity, negative = inhibition"
CC(=O)OCC(=O)c1ccc2ccn(C(C)=O)c2c1,,inactive: -27.3%
O=C(CN1CCSCC1)N1CCc2[nH]c3ccc(Br)cc3c2C1,"inconclusive [inhibitor, partial curve]",
COc1cccc2c1CCC1CC(=O)CC[C@@]21C (some centres undefined),,inactive: -3.04%
CCNc1ncc2nc(-c3cccs3)c(=O)n(Cc3cccs3)c2n1,,inactive: 2.76%
CCOC(=O)c1c(NC(=O)c2ccco2)sc(C(=O)N2CCCC2)c1C,"inconclusive [inhibitor, partial curve]",
CCc1nc(N2CCOCC2)c(C#N)c2c1COC(C)(C)C2,,inactive: -20.3%
CCc1cc(C(=O)Cc2cnn(-c3ccccc3)c2)c(O)cc1O,"inconclusive [inhibitor, single point]",
CNC(=O)C1(C)C=CCN1C(=O)OC (centres undefined),"inconclusive [inhibitor, single point]",
COc1ccc(-c2nc3cnc(Oc4cccc(Cl)c4)nc3n(C3CC3)c2=O)cc1,,inactive: 4.89%
O=C1Cn2c(nc3ccccc32)N1c1ccccc1F,,inactive: -20.4%
COc1ccccc1CNc1ncnc2ccc(-c3ccc(N(C)C)cc3)cc12,"inconclusive [inhibitor, full curve, poor fit]",
COc1ccc(-c2nnc(SCC(=O)NC(C)c3ccccc3)o2)cc1 (centres undefined),"inconclusive [inhibitor, single point]",
CCCCn1c(SCc2cccnc2)nc2c1c(=O)n(C)c(=O)n2C,"inconclusive [inhibitor, single point]",
Cc1csc(NC(=O)C(Cc2ccccc2)n2cccc2)n1 (centres undefined),"inconclusive [inhibitor, single point]",
CCOC(=O)Cc1csc(NC(=O)CSc2nnnn2-c2ccc(CC)cc2)n1,"inconclusive [inhibitor, single point]",
CCOc1ccc(N(CC(=O)Nc2cccc(F)c2)S(=O)(=O)c2c(C)noc2C)cc1,"inconclusive [inhibitor, single point]",
Cc1cc(NC(c2cccnc2)c2ccc3cccnc3c2O)no1 (centres undefined),"inconclusive [inhibitor, single point]",
CCCC1=C(C(=O)OCC)C(c2ccc(NC(C)=O)cc2)NC(=O)N1 (centres undefined),"inconclusive [inhibitor, single point]",
Cn1c(C(=O)N2CCN(C3CCCCC3)CC2)cc2c(=O)n(C)c3ccccc3c21,,inactive: -4.58%
CCOc1ccccc1C(=O)N1CCCCC1C (centres undefined),,inactive: -6.02%
Cc1cc(=O)oc2cc(OCC(=O)N3CCCc4ccccc43)ccc12,"inconclusive [inhibitor, single point]",
COc1ncc2nc(CCc3ccccc3)c(=O)n(Cc3cccs3)c2n1,,inactive: 16.1%
Cn1c(SCc2cccnc2)nc2cccnc21,,inactive: -16.8%
CCCCN1C(=O)c2ccc(C(=O)Nc3cccnc3)cc2C1=O,"inconclusive [inhibitor, partial curve]",
O=C(c1oc(=O)c2ccccc2c1-c1ccccc1)N1CCN(C2CCCCC2)CC1,"inconclusive [inhibitor, partial curve]",

SMILES,Potency,"activity, negative = inhibition"
C=C(C)COc1ccc(-c2[nH]ncc2Oc2ccccc2OC)c(O)c1,"inconclusive [inhibitor, single point]",
Cc1ccccc1N1C(=O)C(Cl)=C(N2CCN(c3ccccc3)CC2)C1=O,"inconclusive [inhibitor, single point]",
COc1ccc(NC(=O)CSc2nc3ccccc3c(=O)n2CCNC(C)=O)cc1,"inconclusive [inhibitor, single point]",
O=C(Nc1nc(-c2ccc(S(=O)(=O)N3CCCCCC3)cc2)cs1)c1cccs1,"inconclusive [inhibitor, full curve]",
CCOC(=O)c1c(C)c(C(=O)NC2CCCCCC2)c(C)n1C,,inactive: -8.67%
Cc1cc2n(n1)C(c1ccc3c(c1)OCO3)Nc1c(C)cccc1-2 (centres undefined),"inconclusive [inhibitor, partial curve]",
CCOC(=O)/C=C/S(=O)(=O)c1ccc(NC(C)=O)cc1,"inconclusive [inhibitor, single point]",
CCOc1ccc(C(=O)NCCn2cc(SCC(=O)Nc3cc(C)on3)c3ccccc32)cc1,,inactive: 2.44%
O=c1cc(-c2ccc(O)c(O)c2)oc2cccc(O)c12,"inconclusive [inhibitor, partial curve]",
COc1ccc2c3c(ccc2c1)N[C@H](C(=O)O)CC3,,inactive: -6.99% [at 11.5 µM]
O=C(O)c1cc(=O)c2ccccc2[nH]1,"inconclusive [inhibitor, single point]",
COc1ccccc1-c1cc(NCc2cccs2)ncn1,"inconclusive [inhibitor, partial curve]",
CCOC(=O)C1=C(c2ccccc2)NC(=O)NC1c1ccc(OCC#N)c(OC)c1 (centres undefined),,inactive: -5.5%
O=C(c1ccc(S(=O)(=O)N2CCCC2)cc1)N1CCCc2ccccc21,"inconclusive [inhibitor, partial curve]",
CCOC(=O)c1cnc(SCC(=O)c2ccccc2)nc1N,,inactive: -1.49%
CCCCn1c(NC(=O)CC)c(C#N)c2nc3ccccc3nc21,,inactive: -27.5%
COc1ccc(S(=O)(=O)N(CC(=O)NCc2ccco2)C2CCCCC2)cc1OC,"inconclusive [inhibitor, single point]",
CCC1=C2CC[C@H]3C(=O)NC(=O)[C@H]3[C@H]2[C@@]2(Cc3ccccc3)C(=NCC3CC3)OC(=O)N2C1=O,,inactive: 8.22%
CCOC(N)=O,,inactive: -2.15%
Cc1noc(C)c1C(=O)N1CCC2(CCCN(c3ccncc3)C2)CC1,,inactive: 8.6%
COCC(=O)Nc1c(C(=O)Nc2ccccc2OC)oc2ccccc12,,inactive: -6.98%
CCn1c(SCC(=O)Nc2nc(-c3ccc(C)cc3)cs2)nnc1-c1ccccc1O,"inconclusive [inhibitor, partial curve]",
N[C@H](Cc1cccc(-c2ccccc2CP(=O)(O)O)c1)C(=O)O,"inconclusive [inhibitor, full curve, poor fit]",
C=CCn1c(N)c(-c2nc3ccccc3n2C)sc1=S,,inconclusive: -30.2% [inhibitor]
